According to the BET-seq Pho4 binding data (Le et al. 2018):
The other results are listed elsewhere or left out. Values were computed here from the reads of four pooled replicates and scatter widely.

biological target: T1, Pho4 (S. cerevisiae) (UniProt P07270); assay: relative binding free energy (BET-seq); higher = weaker binding; settings: reference: library average
T1 sequence: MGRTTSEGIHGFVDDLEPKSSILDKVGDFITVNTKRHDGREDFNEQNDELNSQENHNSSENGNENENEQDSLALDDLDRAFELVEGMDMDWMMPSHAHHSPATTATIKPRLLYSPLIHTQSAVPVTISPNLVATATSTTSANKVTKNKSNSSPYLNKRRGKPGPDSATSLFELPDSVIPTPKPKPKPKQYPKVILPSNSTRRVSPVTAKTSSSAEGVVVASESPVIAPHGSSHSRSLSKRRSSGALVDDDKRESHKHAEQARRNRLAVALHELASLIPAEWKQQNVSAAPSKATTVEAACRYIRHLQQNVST

Sequence | relative binding free energy [kcal/mol]
TCGGTCACGTGCGTTG | 0.13
ACTGACACGTGTGTTT | 0.03
GTGGGCACGTGGAGAC | -0.17
AACGTCACGTGATTTG | 0.32
TTCTACACGTGTTTCT | 0.22
TGAGACACGTGTGTGG | 0.03
TGGAGCACGTGACGAT | 0.06
GATAACACGTGGTGTG | 0.06
GGTTACACGTGGGTTT | 0.01
CGCGGCACGTGAGGCG | 0.08
TAAGGCACGTGGGATC | -0.08
CAGGGCACGTGCTTTG | -0.13
TGGCTCACGTGGTTCG | 0.11
GAAATCACGTGGCGTT | 0.35
TATATCACGTGTAGAT | 0.4
AATGGCACGTGAGGAG | 0.12
TCTAACACGTGGTTTG | -0.1
GTTGGCACGTGTCGGG | 0.05
TGGAGCACGTGTGTTC | -0.16
TTGAGCACGTGGATGA | -0.13
TCTTTCACGTGGTTGC | 0.17
CGGAGCACGTGGGATG | -0.22
TTATTCACGTGTAGCT | 0.21
TATTTCACGTGGGTTT | 0.16
TTAGGCACGTGGTGCC | -0.22

Sequence | relative binding free energy [kcal/mol]
GGAGGCACGTGTTTGG | -0.02
CGTTTCACGTGCTTGG | 0.16
TAGTGCACGTGTGTCG | 0.05
GATGACACGTGAGGTC | 0.42
GATGACACGTGTGTTA | 0.09
TAGGTCACGTGATTCG | 0.2
TTCGCCACGTGAGGTG | 0
TGGGTCACGTGGTAGA | 0.18
TATTACACGTGAATAT | 0.43
TGTGGCACGTGATTTC | -0.06
GGGTACACGTGCGGGC | 0.11
CTTCGCACGTGGGGAT | -0.13
TGAGACACGTGGATGT | 0.01
TAGGACACGTGGGGGC | -0.14
TTGAACACGTGTATTA | 0.08
ATGGGCACGTGGGGGC | -0.21
TGGCGCACGTGCGTCG | -0.07
CTGGGCACGTGTGGGG | 0.01
TGTTTCACGTGTTACT | 0.24
TTATACACGTGGGAGC | -0.02
TGGATCACGTGAATTT | 0.42
ACTGGCACGTGGTTCG | -0.11
ATTACCACGTGGTGTT | -0.22
TTATTCACGTGTTCAG | 0.16
CTTTACACGTGGGGGT | -0.06

Sequence | relative binding free energy [kcal/mol]
GTGAACACGTGTCAGT | 0.15
GATATCACGTGTGTCG | 0.26
CGTTGCACGTGAGGCT | 0.1
ATCGTCACGTGTTTGT | 0.05
AGTGACACGTGTTTGA | -0.07
TTTTCCACGTGGGGTT | -0.01
GAGCTCACGTGGGGAA | 0.22
GTTTCCACGTGTAGGT | 0.12
TTCTTCACGTGTTGGC | 0.37
TTTGGCACGTGTACCG | -0.12
ATCTGCACGTGATGGG | 0.13
TCAGTCACGTGGTTAT | 0.09
CGTGACACGTGGGTTT | -0.03
TAGTTCACGTGCGGGA | 0.3
TGGCGCACGTGAGTGG | 0.14
CGTGGCACGTGAGTGC | 0.02
GGGTTCACGTGCTGTA | 0.26
GTATTCACGTGTAGGA | 0.17
TCGTTCACGTGTCGGT | 0.34
TGGGGCACGTGGCCAG | -0.28
AGTATCACGTGTTATG | 0.08
CTGGTCACGTGTATTT | 0.03
GTAAGCACGTGTTCTG | -0.05
TCCGGCACGTGGTAGG | -0.13
GTGGACACGTGTTTGT | 0.19

Sequence | relative binding free energy [kcal/mol]
AGGATCACGTGTAGCG | 0.15
TTCATCACGTGGGTGT | -0.02
TAAAGCACGTGAGAGT | 0.18
GTATACACGTGGTGAT | 0.11
ATTTTCACGTGGCATA | 0.14
CGTGACACGTGCGGGC | 0.05
AGGGGCACGTGTGTTC | -0.09
GTCGTCACGTGGCTGG | -0.02
GGGTGCACGTGGCACT | -0.1
TATTTCACGTGTGCTG | 0.21
CAAGGCACGTGTGGAA | 0.07
TGGTCCACGTGCGTTG | -0.06
GATTGCACGTGCCGGT | 0.05
CTGGGCACGTGTGCAT | 0
TATTGCACGTGTCGTC | 0.04
CGTGCCACGTGAGGTG | 0.14
ATGAGCACGTGAAGTT | 0.26
ATATTCACGTGTGAGG | 0.27
TCGTACACGTGGTGAG | 0.16
TACGGCACGTGGATTG | -0.14
CTATGCACGTGGGTAT | -0.09
GTACTCACGTGGTGTT | 0.2
TATAACACGTGATGAG | 0.15
GCTGACACGTGTGTGT | 0.06
TATGACACGTGAGATT | 0.41

Sequence | relative binding free energy [kcal/mol]
GTTATCACGTGGAGTT | 0.21
TGTATCACGTGGTAGA | 0
AGCGGCACGTGGGTGC | -0.26
GGAAACACGTGGAGTG | -0.05
TGATTCACGTGTTTGT | 0.28
GCTAGCACGTGGGGCA | -0.1
AGGGCCACGTGTTAGA | -0.05
GTGCGCACGTGAGATG | 0.11
TAGTGCACGTGAGTAT | 0.15
GTTTTCACGTGAATTG | 0.41
GGATGCACGTGTCGGA | 0.04
GCGCGCACGTGGGGGT | -0.29
GGTGACACGTGCTAGT | -0.09
AGGTGCACGTGGAGAT | -0.1
CATTTCACGTGAAATT | 0.52
CGGCACACGTGGGGTT | -0.1
ATTTTCACGTGAGCAG | 0.39
TGGGCCACGTGGGGAT | -0.11
GGGCTCACGTGGTTAA | 0.23
GGATCCACGTGGTAGT | 0.06
TCTGTCACGTGCGGTT | 0.17
GGGTCCACGTGGTCGT | 0
GTCGGCACGTGAATTT | 0.25
GGGGTCACGTGGTTAG | 0.23
TTATACACGTGTGGCG | 0.06

Sequence | relative binding free energy [kcal/mol]
TGGTCCACGTGCGTTT | 0.14
TTTTTCACGTGAATAA | 0.22
TGTTTCACGTGGTGGG | 0.26
GGATACACGTGTCTGT | 0.09
TTAAACACGTGTGGTA | 0.02
CCGGTCACGTGCGGTT | 0.17
GATTGCACGTGTGTGC | 0.07
GATGTCACGTGTTATG | 0.25
ATTGCCACGTGTTGTA | -0.15
TGGATCACGTGGCAAT | 0.19
AGCGGCACGTGGGAGA | -0.15
AGTTTCACGTGTAAGG | 0.34
TCGTGCACGTGGGCTT | -0.2
GTTTCCACGTGGGGCG | 0.07
GAGTGCACGTGTGCGG | 0.08
TGCAGCACGTGTGTTG | -0.03
TTGTACACGTGTTGCA | -0.04
AGGGGCACGTGTTTTC | -0.11
GGATTCACGTGTAGGG | 0.28
GGTTACACGTGTGAGT | 0.19
ATCATCACGTGTGTGC | 0.27
